The densities may have been worked out from excess volumes.
Test: xn = mol fraction of the nth substance listed
Details: 101 kPa

CCCC[n+]1ccn(C)c1.F[B-](F)(F)F + CN1CCCC1=O
mass density [kg/m3]
Details | x2 = 0 | x2 = 0.0999 | x2 = 0.2001 | x2 = 0.3028 | x2 = 0.4 | x2 = 0.4999 | x2 = 0.5998 | x2 = 0.7001 | x2 = 0.8003 | x2 = 0.9001
303.15 K | – | – | – | – | – | 1145.3 | 1129.7 | 1111.3 | 1089 | 1061.5
313.15 K | 1191 | 1182.7 | – | 1162.7 | 1151.2 | – | 1121.9 | 1103.3 | 1080.8 | 1053
323.15 K | – | 1175.6 | 1166.2 | 1155.4 | 1143.8 | 1130.1 | 1114.2 | – | 1072.7 | 1044.6
333.15 K | 1177 | 1168.5 | 1159.1 | 1148.2 | 1136.5 | 1122.6 | 1106.5 | – | 1064.6 | 1036.2

CCCC[n+]1ccn(C)c1.F[B-](F)(F)F + CO
mass density [kg/m3]
Details | x2 = 0 | x2 = 0.1003 | x2 = 0.2047 | x2 = 0.2997 | x2 = 0.3996 | x2 = 0.504 | x2 = 0.6004 | x2 = 0.6992 | x2 = 0.7997 | x2 = 0.9001
303.15 K | – | 1188.9 | – | – | 1149 | – | – | 1067.8 | 1015.1 | 932.6
313.15 K | – | – | – | 1157.7 | 1141.6 | 1120.4 | 1095.5 | 1059.8 | – | –
323.15 K | 1184 | – | 1163.3 | 1150.4 | – | 1112.8 | – | 1051.8 | 998.5 | 915.1
333.15 K | 1177 | 1167.6 | 1156.2 | 1143.2 | – | 1105.5 | 1080.3 | 1044.2 | 990.8 | 906.3

CC#N + CCCC[n+]1ccn(C)c1.F[B-](F)(F)F
x1 = 1
Details | mass density [kg/m3]
303.15 K | 771.2
323.15 K | 749.1

CN1CCCC1=O + CCCC[n+]1ccn(C)c1.F[B-](F)(F)F
x1 = 1
Details | mass density [kg/m3]
313.15 K | 1014.8
333.15 K | 997

CCCC[n+]1ccn(C)c1.F[B-](F)(F)F + CC(=O)N(C)C
mass density [kg/m3]
Details | x2 = 0 | x2 = 0.1006 | x2 = 0.2004 | x2 = 0.3005 | x2 = 0.4011 | x2 = 0.5002 | x2 = 0.5998 | x2 = 0.6996 | x2 = 0.8002 | x2 = 0.8999
303.15 K | 1198.1 | 1185.4 | 1171.7 | 1155.7 | 1137.7 | 1117.3 | 1093.3 | 1064.9 | 1030.1 | 987.7
313.15 K | 1191 | 1178.2 | 1164.4 | 1148.4 | 1130.2 | – | 1085.6 | 1056.9 | 1021.8 | –
323.15 K | 1184 | 1171.1 | 1157.2 | 1141 | 1122.8 | 1102.1 | – | – | 1013.6 | –
333.15 K | 1177 | 1164.1 | 1150.1 | 1133.8 | 1115.4 | 1094.6 | 1070.1 | 1041 | – | 961.7

CO + CCCC[n+]1ccn(C)c1.F[B-](F)(F)F
x1 = 1
Details | mass density [kg/m3]
313.15 K | 772.7
323.15 K | 763

CCCC[n+]1ccn(C)c1.F[B-](F)(F)F + CC#N
mass density [kg/m3]
Details | x2 = 0 | x2 = 0.1001 | x2 = 0.2034 | x2 = 0.3011 | x2 = 0.4013 | x2 = 0.5 | x2 = 0.6018 | x2 = 0.7 | x2 = 0.7997 | x2 = 0.9001
303.15 K | – | 1186.6 | – | 1157.9 | 1138.8 | 1115.4 | 1084.3 | 1044.5 | 988.6 | 905.5
313.15 K | – | 1179.4 | 1165.9 | 1150.5 | – | 1107.6 | – | 1036.1 | 979.7 | 895.9
323.15 K | – | 1172.3 | 1158.6 | – | 1123.7 | – | 1068.2 | 1027.8 | – | 886.2
333.15 K | 1177 | 1165.2 | 1151.5 | 1135.8 | 1116.2 | 1092.2 | 1060.2 | 1019.4 | 962 | 876.5

CC(=O)N(C)C + CCCC[n+]1ccn(C)c1.F[B-](F)(F)F
x1 = 1
Details | mass density [kg/m3]
303.15 K | 931.7
323.15 K | 913.2
333.15 K | 903.8

From a compilation of properties of binary mixtures (doi:10.1007/s10953-014-0273-1)
